{
  "source": "paper PMC3876883",
  "about": "(Science signaling, 2012)",
  "binders": {"B1": {"name": "GFP-SUMO1 (natural protein)", "chain": "not shown"}},
  "molecular_target": "T1, wild-type K2P1 without a fluorescent protein tag (human, UniProt O00180 1-336)",
  "T1 sequence (looked up)": "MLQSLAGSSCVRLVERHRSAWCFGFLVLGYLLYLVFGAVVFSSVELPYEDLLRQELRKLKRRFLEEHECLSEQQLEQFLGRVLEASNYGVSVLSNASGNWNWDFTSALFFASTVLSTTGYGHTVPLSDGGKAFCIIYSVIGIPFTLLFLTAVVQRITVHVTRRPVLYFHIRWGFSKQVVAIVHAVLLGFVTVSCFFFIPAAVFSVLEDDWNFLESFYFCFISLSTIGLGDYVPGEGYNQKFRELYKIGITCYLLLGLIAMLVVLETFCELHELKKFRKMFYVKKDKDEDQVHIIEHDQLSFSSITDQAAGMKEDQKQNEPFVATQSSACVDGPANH",
  "assay": "single-particle photobleaching",
  "data": [
    {"binder": "B1", "values": [
      {"measurement": "stoichiometry N", "result": "2 SUMO monomers per homodimeric channel"}
    ]}
  ]
}
